# According to the supplement of paper PMC8728848:
# The other results are listed elsewhere or left out.
# B1: mCC1-Hexahis-Precomplexed (Mus musculus), P31809 (protein)
# chain: MELASAHLHKGQVPWGGLLLTASLLASWSPATTAEVTIEAVPPQVAEDNNVLLLVHNLPLALGAFAWYKGNTTAIDKEIARFVPNSNMNFTGQAYSGREIIYSNGSLLFQMITMKDMGVYTLDMTDENYRRTQATVRFHVHPILLKPNITSNNSNPVEGDDSVSLTCDSYTDPDNINYLWSRNGESLSEGDRLKLSEGNRTLTLLNVTRNDTGPYVCETRNPVSVNRSDPFSLNIIYGPDTPIISPSDIYLHPGSNLNLSCHAASNPPAQYFWLINEKPHASSQELFIPNITTNNSGTYTCFVNNSVTGLSRTTVKNITVLEPVTQPFLQVTNTTVKELDSVTLTCLSNDIGANIQWLFNSQSLQLTERMTLSQNNSILRIDPIKREDAGEYQCEISNPVSVRRSNSIKLDIIFDPTQGGLSDGHHHHHH
# Key:
# Assay in all cases: glycan array binding signal (z-score within array); higher = stronger binding
# Conditions in all cases: glycan notation: IUPAC condensed, linker removed
# [1] = target: Fuc(a1-2)Gal(b1-4)GlcNAc(b1-3)Gal(b1-4)GlcNAc(b1-2)Man(a1-3)[Fuc(a1-2)Gal(b1-4)GlcNAc(b1-3)Gal(b1-4)GlcNAc(b1-2)Man(a1-6)]Man(b1-4)GlcNAc(b1-4)GlcNAc
# In short: (§1)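 Arrays were curated from the Consortium for Functional Glycomics database, 3228 in total, and kept only where the protein sequence was available. Binding is expressed as a within-array Z-score. This score was averaged across arrays of the same protein sequence at different concentrations or buffers and across linkers, and negative values can be read as non-binding.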
# [2] = target: Fuc(a1-2)Gal(b1-4)GlcNAc(b1-3)Gal(b1-4)GlcNAc(b1-3)Gal(b1-4)GlcNAc
# In short: as §1
# [3] = target: Fuc(a1-2)Gal(b1-4)GlcNAc(b1-3)GalNAc
# In short: as §1
# [4] = target: Fuc(a1-2)Gal(b1-4)GlcNAc(b1-3)[Fuc(a1-2)Gal(b1-4)GlcNAc(b1-6)]GalNAc
# In short: as §1
# [5] = target: Fuc(a1-2)Gal(b1-4)GlcNAc(b1-3)[Fuc(a1-3)[Gal(b1-4)]GlcNAc(b1-6)]Gal(b1-4)Glc
# In short: as §1
# [6] = target: Fuc(a1-2)Gal(b1-4)GlcNAc(b1-6)GalNAc
# In short: as §1
# [7] = target: Fuc(a1-2)Gal(b1-4)GlcNAc6S
# In short: as §1
# [8] = target: Fuc(a1-2)Gal(b1-4)[Fuc(a1-3)]GlcNAc
# In short: as §1
# [9] = target: Fuc(a1-2)Gal(b1-4)[Fuc(a1-3)]GlcNAc(b1-2)Man(a1-3)[Fuc(a1-2)Gal(b1-4)[Fuc(a1-3)]GlcNAc(b1-2)Man(a1-6)]Man(b1-4)GlcNAc(b1-4)[Fuc(a1-6)]GlcNAc
# In short: as §1
# [10] = target: Fuc(a1-2)Gal(b1-4)[Fuc(a1-3)]GlcNAc(b1-2)[Fuc(a1-2)Gal(b1-4)[Fuc(a1-3)]GlcNAc(b1-4)]Man(a1-3)[Fuc(a1-2)Gal(b1-4)[Fuc(a1-3)]GlcNAc(b1-2)Man(a1-6)]Man(b1-4)GlcNAc(b1-4)GlcNAc
# In short: as §1
# [11] = target: Fuc(a1-2)Gal(b1-4)[Fuc(a1-3)]GlcNAc(b1-3)Gal(b1-4)[Fuc(a1-3)]GlcNAc
# In short: as §1
# [12] = target: Fuc(a1-2)Gal(b1-4)[Fuc(a1-3)]GlcNAc(b1-3)Gal(b1-4)[Fuc(a1-3)]GlcNAc(b1-3)Gal(b1-4)[Fuc(a1-3)]GlcNAc
# In short: as §1
# [13] = target: Fuc(a1-2)Gal(b1-4)[Fuc(a1-3)]GlcNAc(b1-3)GalNAc
# In short: as §1
# [14] = target: Fuc(a1-2)Gal(b1-4)[Fuc(a1-3)]GlcNAc(b1-3)[Neu5Ac(a2-6)Gal(b1-4)GlcNAc(b1-6)]Gal(b1-4)Glc
# In short: as §1
# [15] = target: Fuc(a1-2)Gal3S(b1-4)GlcNAc
# In short: as §1
# [16] = target: Fuc(a1-2)Gal6S(b1-3)GlcNAc
# In short: as §1
# [17] = target: Fuc(a1-2)Gal6S(b1-3)GlcNAc6S
# In short: as §1
# [18] = target: Fuc(a1-2)Gal6S(b1-4)Glc
# In short: as §1
# [19] = target: Fuc(a1-2)Gal6S(b1-4)Glc6S
# In short: as §1
# [20] = target: Fuc(a1-2)[Gal(a1-3)]Gal
# In short: as §1
# [21] = target: Fuc(a1-2)[Gal(a1-3)]Gal(b1-3)GalNAc
# In short: as §1
# [22] = target: Fuc(a1-2)[Gal(a1-3)]Gal(b1-3)GalNAc(b1-3)Gal(a1-4)Gal(b1-4)Glc
# In short: as §1
# [23] = target: Fuc(a1-2)[Gal(a1-3)]Gal(b1-3)GlcNAc
# In short: as §1
# [24] = target: Fuc(a1-2)[Gal(a1-3)]Gal(b1-3)GlcNAc(b1-2)Man(a1-3)[Fuc(a1-2)[Gal(a1-3)]Gal(b1-3)GlcNAc(b1-2)Man(a1-6)]Man(b1-4)GlcNAc(b1-4)GlcNAc
# In short: as §1
# [25] = target: Fuc(a1-2)[Gal(a1-3)]Gal(b1-3)GlcNAc(b1-2)Man(a1-3)[Fuc(a1-2)[Gal(a1-3)]Gal(b1-3)GlcNAc(b1-2)Man(a1-6)]Man(b1-4)GlcNAc(b1-4)[Fuc(a1-6)]GlcNAc
# In short: as §1
# [26] = target: Fuc(a1-2)[Gal(a1-3)]Gal(b1-3)GlcNAc(b1-3)GalNAc
# In short: as §1
# [27] = target: Fuc(a1-2)[Gal(a1-3)]Gal(b1-3)GlcNAc(b1-6)GalNAc
# In short: as §1
# [28] = target: Fuc(a1-2)[Gal(a1-3)]Gal(b1-4)Glc
# In short: as §1
# [29] = target: Fuc(a1-2)[Gal(a1-3)]Gal(b1-4)GlcNAc
# In short: as §1
# [30] = target: Fuc(a1-2)[Gal(a1-3)]Gal(b1-4)GlcNAc(b1-2)Man
# In short: as §1
# [31] = target: Fuc(a1-2)[Gal(a1-3)]Gal(b1-4)GlcNAc(b1-2)Man(a1-3)[Fuc(a1-2)[Gal(a1-3)]Gal(b1-4)GlcNAc(b1-2)Man(a1-6)]Man(b1-4)GlcNAc(b1-4)GlcNAc
# In short: as §1
# [32] = target: Fuc(a1-2)[Gal(a1-3)]Gal(b1-4)GlcNAc(b1-2)Man(a1-3)[Fuc(a1-2)[Gal(a1-3)]Gal(b1-4)GlcNAc(b1-2)Man(a1-6)]Man(b1-4)GlcNAc(b1-4)[Fuc(a1-6)]GlcNAc
# In short: as §1
# [33] = target: Fuc(a1-2)[Gal(a1-3)]Gal(b1-4)GlcNAc(b1-3)GalNAc
# In short: as §1
# [34] = target: Fuc(a1-2)[Gal(a1-3)]Gal(b1-4)GlcNAc(b1-6)GalNAc
# In short: as §1
# [35] = target: Fuc(a1-2)[Gal(a1-3)]Gal(b1-4)[Fuc(a1-3)]Glc
# In short: as §1
# [36] = target: Fuc(a1-2)[Gal(a1-3)]Gal(b1-4)[Fuc(a1-3)]GlcNAc
# In short: as §1
# [37] = target: Fuc(a1-2)[Gal(a1-3)]Gal(b1-4)[Fuc(a1-3)]GlcNAc(b1-3)GalNAc
# In short: as §1
binder,measurement,setting,value
B1,glycan array binding signal (z-score),[1],-0.129
same,glycan array binding signal (z-score),[2],-0.228
same,glycan array binding signal (z-score),[3],-0.208
same,glycan array binding signal (z-score),[4],-0.018
same,glycan array binding signal (z-score),[5],-0.163
same,glycan array binding signal (z-score),[6],0.015
same,glycan array binding signal (z-score),[7],-0.259
same,glycan array binding signal (z-score),[8],-0.226
same,glycan array binding signal (z-score),[9],0.05
same,glycan array binding signal (z-score),[10],-0.254
same,glycan array binding signal (z-score),[11],-0.251
same,glycan array binding signal (z-score),[12],-0.097
same,glycan array binding signal (z-score),[13],-0.04
same,glycan array binding signal (z-score),[14],-0.102
same,glycan array binding signal (z-score),[15],-0.219
same,glycan array binding signal (z-score),[16],-0.21
same,glycan array binding signal (z-score),[17],1.11
same,glycan array binding signal (z-score),[18],-0.247
same,glycan array binding signal (z-score),[19],-0.128
same,glycan array binding signal (z-score),[20],-0.192
same,glycan array binding signal (z-score),[21],-0.087
same,glycan array binding signal (z-score),[22],-0.228
same,glycan array binding signal (z-score),[23],0.296
same,glycan array binding signal (z-score),[24],-0.264
same,glycan array binding signal (z-score),[25],-0.02
same,glycan array binding signal (z-score),[26],-0.171
same,glycan array binding signal (z-score),[27],-0.18
same,glycan array binding signal (z-score),[28],-0.207
same,glycan array binding signal (z-score),[29],-0.203
same,glycan array binding signal (z-score),[30],-0.059
same,glycan array binding signal (z-score),[31],-0.106
same,glycan array binding signal (z-score),[32],-0.156
same,glycan array binding signal (z-score),[33],-0.17
same,glycan array binding signal (z-score),[34],-0.213
same,glycan array binding signal (z-score),[35],-0.112
same,glycan array binding signal (z-score),[36],0.002
same,glycan array binding signal (z-score),[37],-0.141
